Measurements as given in the RNAGym collection of RNA variant scans (doi:10.1073/pnas.2313332121).
Variants at the floor of the assay are shown more often than the library holds them.

B1: TPR 5TU (parent)
chain: GGAUCUUCUCGAUCUAACAAAAAAGACAAAUCUGCCACAAAGCUUGAGAGCAUCUUCGGAUGCAGAGGCGGCAGCCUUCGGUGGCGCGAUAGCGCCAACGUUCUCAACUAUGACACGCAAAACGCGUGCUCCGUUGAAUGGAGUUUAUCAUG

Variants of: B1
Assay: polymerase ribozyme fitness, log enrichment relative to wild type (log ratio); higher = more active; in vitro selection for triplet polymerase activity
How it was run: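 Mutant libraries were PCR-built and transcribed for each subunit of a heterodimeric triplet polymerase ribozyme and selected for one round in triplicate at −7 °C, frozen, before gel excision of extended constructs and streptavidin-bead capture. Input and output libraries were Illumina-sequenced, keeping genotypes with ≥10 input reads and ≥1 read per output. Fitness is a logarithmic ratio of genotype to wild-type enrichment, in base 2, using inverse-variance-weighted replicate averages.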

Row | Variant | polymerase ribozyme fitness (log ratio)
1 | A30G C87U C96A | ≤ -4.2
2 | A30G C87U C103U | ≤ -4.2
3 | A30G C87U G141U | ≤ -4.2
4 | A30G C93G U104A | ≤ -4.2
5 | A30G C95A U104A C118U C131A A138U G141A | ≤ -4.2
6 | A30G C95G | -3.11
7 | A30G C95G U134A | ≤ -4.2
8 | A30G C105U C116U U134G | ≤ -4.2
9 | A30G G42A U55G G65A C76G C87G A106U G143A A147C | ≤ -4.2
10 | A30G G42C C43A A64G G68A A91U C96U A98U G133U G140A | ≤ -4.2
11 | A30G G42C C72U A89G A115G | ≤ -4.2
12 | A30G G42U G50A C75U G86A C95U U144A | ≤ -4.2
13 | A30G G46A A49C G58C G88A U104A U130G G141A | ≤ -4.2
14 | A30G G46A U148C G152U | ≤ -4.2
15 | A30G G46C G50U C57U C118G | ≤ -4.2
16 | A30G G46U G68U A147C | ≤ -4.2
17 | A30G G48U G86U C149U | ≤ -4.2
18 | A30G G50C C76U C103G | ≤ -4.2
19 | A30G G50U U55A A97U C131G U144G | ≤ -4.2
20 | A30G G58C C85U A89U C125U U144C | ≤ -4.2
21 | A30G G59A C76A C118G A120U | ≤ -4.2

Row | Variant | polymerase ribozyme fitness (log ratio)
22 | A30G G59C G94U A121G | ≤ -4.2
23 | A30G G67C C125A | ≤ -4.2
24 | A30G G68U A97G C103A U109C G133U | ≤ -4.2
25 | A30G G74A C76U C95A A138C G141A | ≤ -4.2
26 | A30G G80A C95U A142U | ≤ -4.2
27 | A30G G80C | ≤ -4.2
28 | A30G G83C C95U A137C | ≤ -4.2
29 | A30G G86A | -3.45
30 | A30G G92A C118A A120U C129U | ≤ -4.2
31 | A30G G143C | ≤ -4.2
32 | A30G U33A C51A G68C C79U G92A C129A | ≤ -4.2
33 | A30G U33A C93A | ≤ -4.2
34 | A30G U33G U82C C103A U144A | ≤ -4.2
35 | A30G U44A G88U C103A A115G U148G | ≤ -4.2
36 | A30G U44G G58A C69A G83C A147U | ≤ -4.2
37 | A30G U45G G46C C76U C87U U135A | ≤ -4.2
38 | A30G U53A G62U A64G | ≤ -4.2
39 | A30G U53G U61A G92A | ≤ -4.2
40 | A30G U61A G88A | ≤ -4.2
41 | A30G U61G A64C C72U C79G G88C A142G | ≤ -4.2
42 | A30G U78A | ≤ -4.2

Row | Variant | polymerase ribozyme fitness (log ratio)
43 | A30G U90C | ≤ -4.2
44 | A30G U101A G124U C129A | ≤ -4.2
45 | A30G U127C A147G | ≤ -4.2
46 | A30U A37U G65U G68A A73C C87G G94A A97G A98C | ≤ -4.2
47 | A30U A40U A52G A60U G83A A115U C116U | ≤ -4.2
48 | A30U A41G C57G U61A A97G U101G G152U | ≤ -4.2
49 | A30U A47C C85G U90G A115C | ≤ -4.2
50 | A30U A47C U56A C108G | ≤ -4.2
51 | A30U A49C C54G C96G C108A A121C | ≤ -4.2
52 | A30U A49C C96U | ≤ -4.2
53 | A30U A49C G83U G124A U151A | ≤ -4.2
54 | A30U A49C U61G G84U U139C | ≤ -4.2
55 | A30U A49G C51A C54U C76U G88U C96A | ≤ -4.2
56 | A30U A49G C93A G117A | ≤ -4.2
57 | A30U A52C G67A G68A C87U A91G C95G U127C G143U U148G | ≤ -4.2
58 | A30U A52C G83C | ≤ -4.2
59 | A30U A52C U90C C93U C95U C96U A106G | ≤ -4.2
60 | A30U A52G C54A C69U C75G G86C | ≤ -4.2
61 | A30U A52G G67U C132U | ≤ -4.2
62 | A30U A52U C75U A97U G143C | ≤ -4.2
63 | A30U A52U C79G G94U | ≤ -4.2

Row | Variant | polymerase ribozyme fitness (log ratio)
64 | A30U A52U U78A | ≤ -4.2
65 | A30U A60G G88A C95U A121G U134A | ≤ -4.2
66 | A30U A60G U61C G84C A107G A122U | ≤ -4.2
67 | A30U A60U C99U A106U G141C A150C | ≤ -4.2
68 | A30U A66G G68A C76U G141U A142U | ≤ -4.2
69 | A30U A73G C79U G83C G84A C85U A137G G143U | ≤ -4.2
70 | A30U A73U G74U C76G U90G U139C | ≤ -4.2
71 | A30U A73U G88U C93G G133C | ≤ -4.2
72 | A30U A73U G94U U144A G152U | ≤ -4.2
73 | A30U A91U G94A | ≤ -4.2
74 | A30U A91U U104G | ≤ -4.2
75 | A30U A97C C108U A113U C129G | ≤ -4.2
76 | A30U A98U A107C G126A | ≤ -4.2
77 | A30U A115C | ≤ -4.2
78 | A30U C32G C35A C63U G68C G86A A107U | ≤ -4.2
79 | A30U C32G C35G A49C G58U G59A A73G C96A C105U G133A U144G | ≤ -4.2
80 | A30U C35G C54U G58C C85A A91C G94C A142C U146G | ≤ -4.2
81 | A30U C35U C87A A106G U145A | ≤ -4.2
82 | A30U C35U G84A | -4.19
83 | A30U C35U G84A C118U C132A | ≤ -4.2
84 | A30U C36A G58C A121C | ≤ -4.2
